Experimental data as given in the supplement of paper PMC9588766.
Where a name gives a salt, the structure may show the parent alone. Whole data set: some 1,900 compounds, median “cell viability of compound + 1 nM pemigatinib relative to pemigatinib-only (DMSO) wells” near 0.95, cut for the lowest 2% near 0.22. The list shows a part of the results.

system: PDC-DUC18828; assay: cell viability of compound + 1 nM pemigatinib relative to pemigatinib-only (DMSO) wells (fraction); PDC-DUC18828 is a patient-derived cholangiocarcinoma cell line; higher = less growth inhibition; conditions: first compound 1 µM; pemigatinib concentration 1 nM; 72 h
Procedure: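 Selleck Bioactive library screen in the patient-derived FGFR2 fusion-positive ICC cell line PDC-DUC18828 (500 cells/well). Each compound was tested at 1 uM with 1 nM pemigatinib, in triplicate, for 72 h. Viability was read by CellTiter-Glo and normalised to plate DMSO controls. Value is the paper's averaged normalised viability.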

SMILES	cell viability
Nc1nc(N)c2nc(-c3ccccc3)c(N)nc2n1 [Triamterene] + CCN1C(=O)N(c2c(F)c(OC)cc(OC)c2F)Cc2cnc3[nH]c(CN4CCOCC4)cc3c21 [pemigatinib]	0.953
Cc1ccc(C(=O)Cn2c3c(sc2=N)CCCC3)cc1 [Pifithrin-α (PFTα)] + CCN1C(=O)N(c2c(F)c(OC)cc(OC)c2F)Cc2cnc3[nH]c(CN4CCOCC4)cc3c21 [pemigatinib]	0.925
CC(C)(C)NC(=O)[C@H]1CC[C@H]2[C@@H]3CC[C@H]4NC(=O)C=C[C@]4(C)[C@H]3CC[C@]12C [Finasteride] + CCN1C(=O)N(c2c(F)c(OC)cc(OC)c2F)Cc2cnc3[nH]c(CN4CCOCC4)cc3c21 [pemigatinib]	0.925
C=CC[N+]1([C@H]2C[C@H]3[C@@H]4CC[C@H]5C[C@H](O)[C@@H](N6CCOCC6)C[C@]5(C)[C@H]4CC[C@]3(C)[C@H]2OC(C)=O)CCCC1 [Rocuronium Bromide] + CCN1C(=O)N(c2c(F)c(OC)cc(OC)c2F)Cc2cnc3[nH]c(CN4CCOCC4)cc3c21 [pemigatinib]	0.955
CC(ONC(=O)c1cc(C(F)(F)F)cc(C(F)(F)F)c1)C(=O)Nc1ccc(Cl)cc1 (configuration not stated) + CCN1C(=O)N(c2c(F)c(OC)cc(OC)c2F)Cc2cnc3[nH]c(CN4CCOCC4)cc3c21 [pemigatinib]	0.925
N#CC1(c2ccc(NC(=O)c3cccnc3NCc3ccncc3)cc2)CCCC1 [Apatinib] + CCN1C(=O)N(c2c(F)c(OC)cc(OC)c2F)Cc2cnc3[nH]c(CN4CCOCC4)cc3c21 [pemigatinib]	0.99
OC[C@@H](O)CN1CCN(c2ccccc2)CC1 [Levodropropizine] + CCN1C(=O)N(c2c(F)c(OC)cc(OC)c2F)Cc2cnc3[nH]c(CN4CCOCC4)cc3c21 [pemigatinib]	1.04
CC[C@H](c1ccc(O)cc1)[C@@H](CC)c1ccc(O)cc1 [Hexestrol] + CCN1C(=O)N(c2c(F)c(OC)cc(OC)c2F)Cc2cnc3[nH]c(CN4CCOCC4)cc3c21 [pemigatinib]	0.936
Cc1c(Nc2ncccc2C(=O)O)cccc1C(F)(F)F [Flunixin Meglumin] + CCN1C(=O)N(c2c(F)c(OC)cc(OC)c2F)Cc2cnc3[nH]c(CN4CCOCC4)cc3c21 [pemigatinib]	0.996
CC(=O)OCC(=O)[C@@]1(O)CC[C@H]2[C@@H]3CCC4=CC(=O)C=C[C@]4(C)[C@H]3[C@@H](O)C[C@@]21C [Prednisolone Acetate] + CCN1C(=O)N(c2c(F)c(OC)cc(OC)c2F)Cc2cnc3[nH]c(CN4CCOCC4)cc3c21 [pemigatinib]	0.895
COc1ccc(CNc2nc(N3CCC[C@H]3CO)ncc2C(=O)NCc2ncccn2)cc1Cl [Avanafil] + CCN1C(=O)N(c2c(F)c(OC)cc(OC)c2F)Cc2cnc3[nH]c(CN4CCOCC4)cc3c21 [pemigatinib]	0.962
COC(=O)N[C@H](C(=O)N1CC2(CC2)C[C@H]1c1nc(-c2ccc3c(c2)C(F)(F)c2cc(-c4ccc5[nH]c([C@@H]6[C@H]7CC[C@H](C7)N6C(=O)[C@@H](NC(=O)OC)C(C)C)nc5c4)ccc2-3)c[nH]1)C(C)C [Ledipasvir (GS5885)] + CCN1C(=O)N(c2c(F)c(OC)cc(OC)c2F)Cc2cnc3[nH]c(CN4CCOCC4)cc3c21 [pemigatinib]	0.936
CN1CCN(C(=O)c2cc3cc(Cl)ccc3[nH]2)CC1 + CCN1C(=O)N(c2c(F)c(OC)cc(OC)c2F)Cc2cnc3[nH]c(CN4CCOCC4)cc3c21 [pemigatinib]	0.897
Nc1nc(N)c2nc(-c3cccc(O)c3)c(-c3cccc(O)c3)nc2n1 + CCN1C(=O)N(c2c(F)c(OC)cc(OC)c2F)Cc2cnc3[nH]c(CN4CCOCC4)cc3c21 [pemigatinib]	0.967
Cn1cnc2c(F)c(Nc3ccc(Br)cc3Cl)c(C(=O)NOCCO)cc21 [Selumetinib (AZD6244)] + CCN1C(=O)N(c2c(F)c(OC)cc(OC)c2F)Cc2cnc3[nH]c(CN4CCOCC4)cc3c21 [pemigatinib]	0.787
CN(Cc1cc(Br)cc(Br)c1N)C1CCCCC1 [Bromhexine HCl] + CCN1C(=O)N(c2c(F)c(OC)cc(OC)c2F)Cc2cnc3[nH]c(CN4CCOCC4)cc3c21 [pemigatinib]	1.07
C[C@H](CS)C(=O)N1CCC[C@H]1C(=O)O [Captopril] + CCN1C(=O)N(c2c(F)c(OC)cc(OC)c2F)Cc2cnc3[nH]c(CN4CCOCC4)cc3c21 [pemigatinib]	1.03
NCCc1ccc(O)c(O)c1 [Dopamine HCl] + CCN1C(=O)N(c2c(F)c(OC)cc(OC)c2F)Cc2cnc3[nH]c(CN4CCOCC4)cc3c21 [pemigatinib]	0.308
CC(=O)Oc1ccc(C(c2ccc(OC(C)=O)cc2)c2ccccn2)cc1 [Bisacodyl] + CCN1C(=O)N(c2c(F)c(OC)cc(OC)c2F)Cc2cnc3[nH]c(CN4CCOCC4)cc3c21 [pemigatinib]	0.89

SMILES	cell viability
CCOC(=O)CC(=O)N1CCSC1COc1ccccc1OC (configuration not stated) [Moguisteine] + CCN1C(=O)N(c2c(F)c(OC)cc(OC)c2F)Cc2cnc3[nH]c(CN4CCOCC4)cc3c21 [pemigatinib]	0.855
CCC(C)(C)C(=O)O[C@H]1C[C@@H](C)C=C2C=C[C@H](C)[C@H](CC[C@@H]3C[C@@H](O)CC(=O)O3)[C@H]21 [Simvastatin] + CCN1C(=O)N(c2c(F)c(OC)cc(OC)c2F)Cc2cnc3[nH]c(CN4CCOCC4)cc3c21 [pemigatinib]	0.865
O=C(CSc1nc2c(c(=O)n1-c1ccccc1)SCC2)Nc1ccc(-c2ccccc2)cn1 + CCN1C(=O)N(c2c(F)c(OC)cc(OC)c2F)Cc2cnc3[nH]c(CN4CCOCC4)cc3c21 [pemigatinib]	1
CN(C[C@@H]1COCCO1)S(=O)(=O)Nc1ccc2ccc3ncc(-c4cnn(C)c4)cc3c(=O)c2c1 + CCN1C(=O)N(c2c(F)c(OC)cc(OC)c2F)Cc2cnc3[nH]c(CN4CCOCC4)cc3c21 [pemigatinib]	0.832
CCCc1nn(C)c2c(=O)[nH]c(-c3cc(S(=O)(=O)N4CCN(C)CC4)ccc3OCC)nc12 [Sildenafil Citrate] + CCN1C(=O)N(c2c(F)c(OC)cc(OC)c2F)Cc2cnc3[nH]c(CN4CCOCC4)cc3c21 [pemigatinib]	1.02
N#CC[C@H](C1CCCC1)n1cc(-c2ncnc3[nH]ccc23)cn1 + CCN1C(=O)N(c2c(F)c(OC)cc(OC)c2F)Cc2cnc3[nH]c(CN4CCOCC4)cc3c21 [pemigatinib]	0.946
CC(C)(O)CC(=O)NCCn1ccc2ncnc(Nc3ccc(Oc4cccc(C(F)(F)F)c4)c(Cl)c3)c21 + CCN1C(=O)N(c2c(F)c(OC)cc(OC)c2F)Cc2cnc3[nH]c(CN4CCOCC4)cc3c21 [pemigatinib]	0.847
C[C@H](Nc1ncnc2nc[nH]c12)c1cc2cccc(Cl)c2c(=O)n1-c1ccccc1 + CCN1C(=O)N(c2c(F)c(OC)cc(OC)c2F)Cc2cnc3[nH]c(CN4CCOCC4)cc3c21 [pemigatinib]	0.793
CC(NCCc1ccc(O)cc1)C(O)c1ccc(O)cc1 (configuration not stated) [Ritodrine HCl] + CCN1C(=O)N(c2c(F)c(OC)cc(OC)c2F)Cc2cnc3[nH]c(CN4CCOCC4)cc3c21 [pemigatinib]	0.937
Cc1c(C(=O)N2CCOc3ccc(-c4ccc(N)nc4)cc3C2)ccc(S(C)(=O)=O)c1F + CCN1C(=O)N(c2c(F)c(OC)cc(OC)c2F)Cc2cnc3[nH]c(CN4CCOCC4)cc3c21 [pemigatinib]	0.732
O=S(=O)(c1cccc2cnccc12)N1CCCNCC1 [Fasudil (HA-1077) HCl] + CCN1C(=O)N(c2c(F)c(OC)cc(OC)c2F)Cc2cnc3[nH]c(CN4CCOCC4)cc3c21 [pemigatinib]	1.05
COc1cc2nc(N3CCCN(C)CC3)nc(NC3CCN(Cc4ccccc4)CC3)c2cc1OC + CCN1C(=O)N(c2c(F)c(OC)cc(OC)c2F)Cc2cnc3[nH]c(CN4CCOCC4)cc3c21 [pemigatinib]	0.935
O=C(c1ccc(F)c(F)c1Nc1ccc(I)cc1F)N1CC(O)([C@@H]2CCCCN2)C1 [Cobimetinib (GDC-0973, RG7420)] + CCN1C(=O)N(c2c(F)c(OC)cc(OC)c2F)Cc2cnc3[nH]c(CN4CCOCC4)cc3c21 [pemigatinib]	0.592
CC(C)c1cnn2c(NCc3ccccc3)cc(NCCCCCCN)nc12 + CCN1C(=O)N(c2c(F)c(OC)cc(OC)c2F)Cc2cnc3[nH]c(CN4CCOCC4)cc3c21 [pemigatinib]	1.06
CC(C)[C@H](O)C(=O)N[C@@H](C)C(=O)N[C@@H]1C(=O)N(C)CCc2ccccc21 + CCN1C(=O)N(c2c(F)c(OC)cc(OC)c2F)Cc2cnc3[nH]c(CN4CCOCC4)cc3c21 [pemigatinib]	1.04
Cc1[nH]nc2ccc(-c3cncc(OC[C@@H](N)Cc4ccccc4)c3)cc12 + CCN1C(=O)N(c2c(F)c(OC)cc(OC)c2F)Cc2cnc3[nH]c(CN4CCOCC4)cc3c21 [pemigatinib]	0.826
CCC(=O)O[C@]1(C(=O)SCF)[C@H](C)C[C@H]2[C@@H]3C[C@H](F)C4=CC(=O)C=C[C@]4(C)[C@@]3(F)[C@@H](O)C[C@@]21C [Fluticasone propionate] + CCN1C(=O)N(c2c(F)c(OC)cc(OC)c2F)Cc2cnc3[nH]c(CN4CCOCC4)cc3c21 [pemigatinib]	0.834
Nc1ccc(/N=N/c2ccccc2)c(N)n1 [Phenazopyridine HCl] + CCN1C(=O)N(c2c(F)c(OC)cc(OC)c2F)Cc2cnc3[nH]c(CN4CCOCC4)cc3c21 [pemigatinib]	1.03
